The record followed here is PubChem BioAssay AID1963576 (National Center for Advancing Translational Sciences (NCATS), 2024).

Structures are written as SMILES. The campaign covered roughly 46,000 compounds. About 60 (0.1%) were called active. About 3% were inconclusive and are not listed. Calls come from the whole dose curve; as a rule, active = well fitted inhibition curve with a large enough effect; inconclusive = small, poorly fitted or top-dose-only effect; inactive = no such curve, though single readings can be large or run the other way. The list shows a part of the results.

The experiment is described as follows: Primary qHTS assay for Inhibitors of ovarian cancer metastasis using an organotypic tumor microenvironment (TME) model.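 For activity change, negative = inhibition: plate controls were DMSO wells for no effect and tomatine positive control wells for full effect.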 Note: nearly all actives have a fitted effect of over 65% in size. The settings on record: SKOV3ip1-GFP adhesion/invasion on 3D omental model, fluorescence; series mostly up to 45.8 µM; activity change, negative = inhibition: at the top concentration. The essentials:
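qHTS, 4-pt dose (0.36-46 umol/L); SKOV3ip1-GFP, 1,200 cells/well, no FBS; primary omental fibroblast/mesothelial co-culture 48 h pre-grown; 2 h RT + 16 h 37 C; PBS wash, 4% PFA; GFP count 488/509 nm.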
(In general: Quantitative high-throughput screening tests each substance at several concentrations.)
Consider `Cc1cc(C(=O)NCCc2ccc(Cl)cc2)c2c(C)nn(-c3cccc(F)c3)c2n1`, for which the “activity change, negative = inhibition” value was inactive: 0.447%. For the molecule `CC(C)(C)c1ccc(C2NC(=O)c3n[nH]c(-c4cccs4)c32)cc1` (stereo unspecified), the molecule was called inactive. On the same count and under the same terms, as for `Cc1ccc(C(=O)Nc2ccc(C(=O)OCc3cc(=O)n4ccsc4n3)cc2)cc1`, the entry is “inactive”. Consider `COc1ccc(C)cc1NC(=O)C(=O)NCC1(c2ccccc2)CCCC1`, for which the “activity change, negative = inhibition” value is inactive: 0.419%. Still for that read-out and setting: then `O=C(Nc1nnc(S(=O)(=O)N2CCN(c3ccc(F)cc3)CC2)s1)c1ccc(Cl)cc1`, with inactive: 4.36%. Take `CCCCSCCCNC(=O)CN1C(=O)COc2ccc(S(=O)(=O)N3CCC(C)CC3)cc21`: the molecule was called inactive.

For `Cc1ccc(Cl)cc1NC(=O)COCc1cc(-c2ccco2)on1`, the “activity change, negative = inhibition” value is inactive: 8.04%. Same read-out and setting: then `COc1ccc(-c2[nH]c3c(c2-c2c(-n4cccc4)n(C)c(=O)n(C)c2=O)c(=O)n(C)c(=O)n3C)cc1`, with inactive: 6.37%. Take `O=C(CNC(=O)c1ccc(Cl)cc1)OCc1cc(=O)n2ccsc2n1`: the molecule was called inactive. Same read-out and setting: then `CCN(CC)S(=O)(=O)c1ccc2c(c1)N(CC(=O)N(C)Cc1ccccc1)C(=O)CO2`, with “inactive”; and `Cc1ccc(Cn2cc(CCC(=O)NCc3ccccc3F)c3ccccc32)cc1`, with “inactive”. Take `Cc1ccc(NC(=O)Cn2c(CCC(=O)O)ccc2-c2ccc(Cl)cc2)cc1`: the “activity change, negative = inhibition” value is inactive: 0.799%. As to `COC(=O)c1ccc(NC(=O)Cn2nc(C(=O)Nc3ccc(C)cc3)ccc2=O)cc1`, the molecule was classed as inactive.

Take `COc1ccccc1N1CCN(c2ncnc3c2nc2n3CCCC2)CC1`: the molecule was called inactive. For `Cc1nnsc1C(=O)Oc1ccc(C(C)C)cc1`, the “activity change, negative = inhibition” value was inactive: -0.276%.

In the case of `Cc1cccc(NC(=O)CSc2nc(C3CCCC3)nc3c2c(=O)n(C)c(=O)n3C)c1C`, the “activity change, negative = inhibition” value was inactive: 0.182%. Turning to `Cc1c(C(=O)OCC2CCCCC2)[nH]c2c1C(=O)CC(c1ccc(Cl)cc1)C2` (stereo unspecified), the “activity change, negative = inhibition” value was inactive: -18.2%. Consider `COc1ccc(S(=O)(=O)Nc2cccc(-c3ccc(N4CCCCCC4)nn3)c2)cc1`, for which the “activity change, negative = inhibition” value was inactive: -9.68%. On to `COc1ccc(O)c(C2Nc3ccccc3-n3c(-c4ccccc4)c4c(=O)n(C)c(=O)n(C)c4c32)c1` (stereo unspecified), for which the outcome was inactive.

With `COc1cccc(CNC(=O)C(NS(=O)(=O)c2ccc3c(c2)oc(=O)n3C)C(C)C)c1` (stereo unspecified), the result was inactive. For the molecule `CCn1c(=O)cc(OCC(=O)NCc2ccccc2Cl)c2ccccc21`, the “activity change, negative = inhibition” value was inactive: -3.83%. For `CCN(CC)C(=O)c1sc2c(c1C)c(=O)n(-c1ccc(C)c(C)c1)c(=O)n2Cc1cc(=O)n2c(C)cccc2n1`, the “activity change, negative = inhibition” value was inactive: 2.3%.

As for `COc1ccc2c(c1)-c1nc(NC(=O)c3ccccc3F)sc1CC2`, the call was inactive. For the molecule `Cc1nnc(SCc2nc(-c3ccc(Cl)cc3)no2)n1-c1ccc(F)cc1`, the outcome was inactive. Still for that read-out and setting: then `COc1ccccc1NC(=O)Cn1c(=O)n(CCc2ccccc2)c(=O)c2c3c(sc21)CN(C(C)=O)CC3`, with “inactive”. On the same count and under the same terms, then `COc1ccc(CNC(=O)CSc2ncc3c(n2)-c2cc(Cl)ccc2N(Cc2ccccc2)S3(=O)=O)cc1OC`, with “inactive”; and `Cc1cccc(N(C)C(=O)CN(C)S(=O)(=O)c2ccc3[nH]c4c(c3c2)CCCC4)c1`, with “inactive”.

On to `COc1cc2ccccc2cc1C(=O)Nc1cc(-c2nc3ccccc3o2)ccc1C`, for which the “activity change, negative = inhibition” value was inactive: 0.867%.

For `Cc1ccc(S(=O)(=O)N2CCc3cc(C(=O)Nc4ccc(C)c(C)c4)ccc32)cc1`, the “activity change, negative = inhibition” value is inactive: 5.02%. Still for that read-out and setting: as for `O=c1cc(-c2ccccc2)nc2cc(-c3ccc(F)cc3)[nH]n12`, the figure is inactive: -15.9%. With `CCC(=O)OCc1cnc(C)c2oc(=O)c(C(=O)Nc3ccccc3C(F)(F)F)cc12`, the “activity change, negative = inhibition” value was inactive: 5.22%. Same read-out and setting: as for `O=C(c1ccccc1)n1nc(-c2ccco2)nc1NCc1cccs1`, the figure is inactive: 10.4%; as for `COc1cc2c(cc1OC)CN(CCc1ccc(NC(=O)c3cc(OC)c(OC)cc3NC(=O)c3cnc4ccccc4c3)cc1)CC2`, inactive: 13.7%. Turning to `Cc1ccc(Cn2cc(/C=C(/C#N)C(=O)Nc3cccc(Cl)c3)c3ccccc32)cc1`, the call was inactive.

Turning to `COc1ccc(-c2nc3ccccc3o2)cc1NC(=O)CSc1ccc(Cl)cc1`, the “activity change, negative = inhibition” value is inactive: -3.54%.

As to `Cc1nn(-c2ccc(N3CCCC3)nn2)c(C)c1CCC(=O)NCc1ccccc1F`, the “activity change, negative = inhibition” value is inactive: -6.76%. The same measure, in the same setting: as for `O=C(CCSCc1ccccc1F)N1CCN(c2ccc(Cl)cc2)CC1`, the figure is inactive: -8.82%; as for `CCCCNc1nc(Oc2ccc(OCCC)nn2)nc(N(C)C)n1`, inactive: -2.94%. For `COc1ccc(OC)c(CCNC(=O)CN2C(=O)COc3ccc(S(=O)(=O)N4CCC(C)CC4)cc32)c1`, the molecule was called inactive. With `COc1ccc(CC(=O)Nc2c(C(=O)Nc3ccc(F)cc3)oc3ccccc23)cc1OC`, the “activity change, negative = inhibition” value was inactive: 4.87%. Same read-out and setting: then `COc1ccc(-n2c(/C=C/c3cccc4ccccc34)nc3ccccc3c2=O)cc1Cl`, with inactive: -0.0736%.

On to `CCC1CCCCN1CCCNC(=O)c1c(O)nc2c(C)cccn2c1=O` (stereo unspecified), for which the result was inactive. As to `CN(C(=O)c1ccc(F)cc1C(F)(F)F)C1CCN(c2nnc(-c3ccnn3C)c3ccccc23)CC1`, the “activity change, negative = inhibition” value was inactive: -25.6%. The same measure, in the same setting: as for `CCOC(=O)c1ccc(NC2=CC(c3ccc(O)c(OCC)c3)N(c3ccc(C(=O)OCC)cc3)C2=O)cc1` (stereo unspecified), the figure is inactive: 9.54%; as for `COc1cc2c(C(=O)Nc3ccc(C)cc3Br)cn(C)c(=O)c2cc1OC`, inactive: -0.243%; as for `CCCN1CCN(CCNC(=O)Nc2cc(C)ccc2OC)CC1`, inactive: 18.9%.
